56 variants from the RNAGym collection of RNA variant scans (doi:10.7554/elife.90254) can be followed below.

Read counts are not given, so values of variants with three or more changes are uncertain.

To fix the notation:
B1: LINE1-mini (parent)
chain: GGCAGAGCUCAACACAGCGUGGCAAAGUGGCUGUGGCUAGACUGCC

The variants in this data set derive from B1. Put plainly: self-cleavage, relative activity (ratio to wild type); higher = more cleavage; in vitro, sequencing; the parent is a self-cleaving ribozyme.
Consider GGGAGAGCUCAACACAGCCUGGCAAAGUGGCUGUGGGUAGACUGCC [C3G G19C C37G], for which the self-cleavage came out at 0.02.

Consider GGGAGAGCUCAACACAGCGUUGAAAAGUGGGUGUGGCUAGACUGCC [C3G G21U C23A C31G], for which the self-cleavage is 0.03.

Consider GGGAGAGCUCAACACAUCGUGGAAAAGUGGCUGUAGCUAGACUUCC [C3G G17U C23A G35A G44U], for which the self-cleavage stood at 0.01.

As for GGGACAGCUCAACACAGCGUGCCAAAGUGGAUGUGGGUAGACUGCC [C3G G5C G22C C31A C37G], the self-cleavage amounted to 0.02.

Consider GGGAGAGCUCAACACAGCGUUGCAAAUUAGCUGUGGUUAGACUGCC [C3G G21U G27U G29A C37U], for which the self-cleavage turned out to be 0.1.

Regarding GGGACAGCUCAACAAAGCGUGGCAAAGUAGCUGUAGCUAGACUGAC [C3G G5C C15A G29A G35A C45A], the self-cleavage turned out to be 0.04.

Consider GGGAGAGCUCAACACAGCGUGGGAAAGUGGCUGUGGUUAGCCUGCC [C3G C23G C37U A41C], for which the self-cleavage stood at 0.04.

In the case of GGGAGAGCUCAACACAGCGUGUCCAAGUGGAUGUGGCUAAACUGCC [C3G G22U A24C C31A G40A], the self-cleavage was determined as 0.24.

For the variant GGGAGAGCUCAACACAGCUUGGCAAAGUGGGUGUGGCUAGACUGCC [C3G G19U C31G], the self-cleavage amounted to 0.05.

For GGGAAAGCUCGAAACAGCGUGGCCAAGUGGCUGUGGCUAGACUGCC [C3G G5A A11G C13A A24C], the self-cleavage is 0.04.

For the variant GGGAGAGCUCAACACAUCGUGUCAAAGUGGCUGUGGCUAGACUGCC [C3G G17U G22U], the self-cleavage came out at 0.17.

Consider GGGAGAGCUCAACACAUCGUGCCAAAGUGGCUGUGGCUAGACUGCC [C3G G17U G22C], for which the self-cleavage was determined as 0.45.

Turning to GGGAGAGCUCAACACAUCGUGACAAAGUGGCUGUGGCUAGACUGCC [C3G G17U G22A], the self-cleavage turned out to be 0.08.

Take GGGAAAGCACAAGACAGCGUGGCAAAGUGGCUGUGGCUAGACUGCC [C3G G5A U9A C13G]: the self-cleavage stood at 0.41.

For the variant GGGAGACCUCAACACAGCUUGGCGAAGUGUCUGUGGCUAUACUGGC [C3G G7C G19U A24G G30U G40U C45G], the self-cleavage stood at 0.

For GGGAGAACACUACACAGCGUGGGAAAGUGGCUGUGGCUAGACUGUC [C3G G7A U9A A11U C23G C45U], the self-cleavage is 0.03.

As for GGGAAAGCUCAACACAGCGUGGCAAAGUGCGUGUGGCUAGACUGCA [C3G G5A G30C C31G C46A], the self-cleavage came out at 0.06.

For GGGAGAGCUCAACACAGUGUGGCAAAGUGGCUGUGGAUAGACCGCC [C3G C18U C37A U43C], the self-cleavage was 0.25.

Regarding GGGAGAGCUCAACACAGCGUGCCAAAGUUGCUAUGGCUAGACUGCC [C3G G22C G29U G33A], the self-cleavage came out at 0.49.

With GGGAGAGCUCAACACAGCGUGGAAAAGUGGCUGUGGCUAGACUGUC [C3G C23A C45U], the self-cleavage was 2.98.

With GGGAUAGCUCAACACAGCGUGGCAAAGUGGCUGUGGCUAUACUGCC [C3G G5U G40U], the self-cleavage worked out at 0.05.

Consider GGGAGAUCUCAACACAGCGUGGCCGAGUGGCUGUGGCUAGACUGCC [C3G G7U A24C A25G], for which the self-cleavage was determined as 0.31.

As for GGGAGAGCUCAACACAUCGUGGCAAAGUGGCUGUGGACACACUGCC [C3G G17U C37A U38C G40C], the self-cleavage was 0.16.

Turning to GGGAGAGCUCAACACAGCGUUUCAAAGUGGCAGUGGCUAGACUGCC [C3G G21U G22U U32A], the self-cleavage stood at 0.03.

For the variant GGGAGAGCUCAACACAGCGUGGCAAAAUGGCUGUGGCUAUACUGGC [C3G G27A G40U C45G], the self-cleavage came out at 0.09.

With GGGAGACCUCAACACAGCGUGGCAUAGUGGCUGGGUUUAAACUGCC [C3G G7C A25U U34G G36U C37U G40A], the self-cleavage came to 0.

As to GGGAGAGCUCAACACAGGGUGGAAAAGUGGCUGUGGCUAGACUGCC [C3G C18G C23A], the self-cleavage came out at 0.14.

On to GGGACAGCUCAACACAGGGUGGCAACGUGGCUGUGGCUAGACUGCC [C3G G5C C18G A26C], for which the self-cleavage was determined as 0.03.

On to GGGAGACCUCAACACAGCGUAGCAAAGUGGCUGUGGCUAGUCUGCC [C3G G7C G21A A41U], for which the self-cleavage turned out to be 0.05.

Turning to GGGAGAGCUCAACACAGCGUGUCAAAGUGGCUGUGGCUAGAGUGCC [C3G G22U C42G], the self-cleavage was 0.1.

As to GGGAAGACUCAACACAGCGUGGCAAAGUGGCUGUGGUUUGACUGCC [C3G G5A A6G G7A C37U A39U], the self-cleavage was 0.26.

With GGGAGAGCUCAACACAGGGUGGCAAAGUGGCUGUGGCUUGACUGCC [C3G C18G A39U], the self-cleavage turned out to be 0.06.

For the variant GGGAGAGCUCAACACAGCGUGGCAAAGUCGCUGAGGCUAGAAUGCC [C3G G29C U34A C42A], the self-cleavage is 0.37.

With GGGAGAGCUCAACACAGCGUGGCAAAGUCGCUGUGGGUAGACUGCC [C3G G29C C37G], the self-cleavage was 0.16.

GGGACAGCGCAACAAAGCGUGGCAAAGUGGCUGUGGCGAGACUGCC [C3G G5C U9G C15A U38G]: the self-cleavage worked out at 0.04.

Consider GGGAGAGCUCAACACAGCGUGGAAAAGUGGCAGUUGCUAGACUGCC [C3G C23A U32A G35U], for which the self-cleavage was found to be 0.03.

With GGGAGAGCUCAACACAGCGUGGCAAAGUGGGUGUGGCUAGACUGUC [C3G C31G C45U], the self-cleavage worked out at 0.11.

For the variant GGGAGAUCUCAACACAGCGUGUCAAAGUGGCUGUGGCUAGACUACC [C3G G7U G22U G44A], the self-cleavage came out at 0.02.

Consider GGGAGAGCUCAACACAGCGUGGCAAAGUGGAUGUGGCUAGAGUGCC [C3G C31A C42G], for which the self-cleavage amounted to 0.05.

With GGGAGAGCUCAACACAGCGUGGCAAAGUGGCUUUGGCGAGACUGCC [C3G G33U U38G], the self-cleavage was found to be 0.07.

Turning to GGGAGAGCUCAACACAGCGUGGCAAAGUGGAUGUGGCUAUACUGCC [C3G C31A G40U], the self-cleavage came to 0.01.

On to GGGAGACCUCAACAAAGCGUGGCAAAGUGGCUGUGGCUAGACUGCC [C3G G7C C15A], for which the self-cleavage turned out to be 0.02.

Take GGGAGAGCUCAACACACCGUAGCAAAGUGGCUGUGGCUCGACUGCC [C3G G17C G21A A39C]: the self-cleavage worked out at 0.02.

For the variant GGGACAGCUCAACACAGCGUGGCAUAGUGUCUGUGGCUUUACUGCC [C3G G5C A25U G30U A39U G40U], the self-cleavage was 0.17.

GGGAGAGCUCAACACAGCGUUGCAAAGUGGCUGUCGGAAAACUGCC [C3G G21U G35C C37G U38A G40A]: the self-cleavage worked out at 0.03.

GGGAGAGCUCAACACAGCGUGGCAAAGUGGCUGUGGCUAGACUGAU [C3G C45A C46U]: the self-cleavage came to 0.06.

For GGGAGAGCUCAACACAGAGUGGCAAAGUGACUGUGGCUAGACUGCC [C3G C18A G30A], the self-cleavage is 0.11.

In the case of GGGAGAUCUCACCACAGCGUGCCAAACUGCCUGUGGCUAGACUGCC [C3G G7U A12C G22C G27C G30C], the self-cleavage was 0.02.

In the case of GGGAGAGCUCAACACAGUGUGGCAAAGAGGCUGUGGCUAGACUGCC [C3G C18U U28A], the self-cleavage came out at 0.13.

As to GGGAGAGCUCAACACAGCCUGGCAAAGUGGCAGUGGCUAGACUGCC [C3G G19C U32A], the self-cleavage stood at 0.05.

Turning to GGGAGAGCUCAACACAGCGUGGCAAACUGGCUGUGGCUAAACUGCC [C3G G27C G40A], the self-cleavage amounted to 0.05.

In the case of GGGAGAGCUCAACACAGCGUGGCAAAAUGGCUGUGGCUAGACUACC [C3G G27A G44A], the self-cleavage was 0.87.

Consider GGGAGACCUCAACAAAGCGUGGCAAAGCAGCUGUGGCUAGACUGCC [C3G G7C C15A U28C G29A], for which the self-cleavage is 0.03.

As to GGGAGAGCUCAACACAGCUUGGAAAUGUGGCUCUGGCUAGACUGCC [C3G G19U C23A A26U G33C], the self-cleavage amounted to 0.04.

As to GGGAGAGCUCAACACAGCGUGAGAAAGUGGCUGUGGCUAGACUGCC [C3G G22A C23G], the self-cleavage is 0.2.

In the case of GGGACAGCUCAAAACCGCGUGGCAAAGUGGCGGUGGCUAGACUGCC [C3G G5C C13A A16C U32G], the self-cleavage was determined as 0.02.
